Results on 60 molecules are retold here after PubChem BioAssay AID360 (National Center for Advancing Translational Sciences (NCATS), 2006).

The campaign covered roughly 48,000 compounds. About 550 (1.1%) were called active. Roughly 4% stayed inconclusive and do not appear here. Cut-off read from the data, not from the text of the source: active = potency below about 15 µM; inconclusive = mostly about 16 µM to 33 µM; inactive = weaker than that. This is one part of the list.
Potency is the fitted concentration of half-maximal effect.

In the experiment the target is Lysosomal acid glucosylceramidase (Homo sapiens) (UniProt P04062). Kind of experiment: Glucocerebrosidase.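 Note: the screen sought inhibitors.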 The settings on record: purified enzyme, resorufin glucoside fluorescence (screen aimed at inhibitors), 20 min. The method, boiled down: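 Wild-type enzyme at 0.2 nM final in 50mM citric acid/KH2PO4, 10mM sodium taurocholate, 0.01% tween-20, pH 5.9, with resorufin beta-D-glucopyranoside at 30 uM final. Compounds titrated, 20 min at RT, red fluorescence read; AC50 from titration.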
UniProt P04062, sequence (P04062 whole entry, looked up): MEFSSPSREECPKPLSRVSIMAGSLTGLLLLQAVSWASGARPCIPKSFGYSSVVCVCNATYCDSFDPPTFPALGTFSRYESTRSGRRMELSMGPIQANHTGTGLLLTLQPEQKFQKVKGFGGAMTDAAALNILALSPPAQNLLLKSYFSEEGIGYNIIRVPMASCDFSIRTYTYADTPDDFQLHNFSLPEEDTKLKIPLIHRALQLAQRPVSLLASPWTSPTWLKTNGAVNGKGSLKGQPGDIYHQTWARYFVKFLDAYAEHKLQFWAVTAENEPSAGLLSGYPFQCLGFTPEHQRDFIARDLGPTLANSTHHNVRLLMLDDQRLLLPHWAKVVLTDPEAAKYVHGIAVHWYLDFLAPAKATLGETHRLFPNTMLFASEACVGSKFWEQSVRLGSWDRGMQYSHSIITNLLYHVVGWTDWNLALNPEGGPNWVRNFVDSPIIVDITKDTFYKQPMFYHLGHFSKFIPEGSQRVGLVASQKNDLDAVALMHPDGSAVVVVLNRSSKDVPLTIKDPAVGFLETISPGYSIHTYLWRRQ
With `O=C(CCn1nnc(-c2cccs2)n1)NCc1ccccc1Cl`, the Potency was inactive: > 76.9 µM.
Then `COc1ccc(-c2nn(C)c(=O)c3ccccc23)cc1CNC(=O)CN1CCOCC1`, with inactive: > 76.9 µM; and `c1cncc(-c2nnc(-c3ccco3)o2)c1`, with inactive: > 76.9 µM.
In the case of `CCCc1nnc2n1N=C(c1ccc(OC)c(OC)c1)CS2`, the Potency was inactive: > 76.9 µM.
In the case of `CCCC(c1nnnn1Cc1ccccc1)N1CCC(C(N)=O)CC1` (stereo not given), the Potency is inactive: > 76.9 µM.
As to `N#Cc1nc(Cc2ccccc2)oc1NCCCn1ccnc1`, the Potency result was “inactive”.
The figure for `CC(C)CCn1c(Sc2nc3ccccc3s2)nc2c1c(=O)[nH]c(=O)n2C` is inactive: > 76.9 µM.
As for `Cc1cccc(-c2noc(CN(C(=O)c3ccc(Br)o3)C(C)C)n2)c1`, the Potency is inactive: > 76.9 µM.
The figure for `CCOc1cc(C2C3=C(CCCC3=O)NC3=C2C(=O)CCC3)ccc1OCCO` is inactive: > 76.9 µM.
In the case of `O=C(Cn1nc(C(=O)O)c2ccccc2c1=O)NCCC1=CCCCC1`, the Potency was inactive: > 76.9 µM.
Then `CC(=O)c1ccc(NC(=O)C(C)Sc2nnnn2C)cc1` (stereo not given), with inactive: > 76.9 µM; and `Nc1nc2n(n1)C(c1ccco1)CC(c1ccc(Cl)c(Cl)c1)N2` (stereo not given), with inactive: > 76.9 µM.
Then `Cc1nc(N2CCN(C(c3ccccc3)c3ccccc3)CC2)nc2c1C(=O)CCC2`, with inactive: > 76.9 µM; and `Cc1ccc(C)c(N2CCN(C(=O)C3CCN(S(=O)(=O)c4c(C)noc4C)CC3)CC2)c1`, with inactive: > 76.9 µM.
The figure for `CC1CCCC(C)N1C(=O)CN1CCN(c2nc(-c3ccc(F)cc3)cs2)CC1` (stereo not given) is inactive: > 76.9 µM.
As to `Nc1n[nH]c2c1C1(CCCCC1)Cc1ccccc1-2`, the Potency was inactive: > 76.9 µM.
Take `C=CCn1c(SCc2ccc3nonc3c2)nnc1-c1cccs1`: the Potency is inactive: > 76.9 µM.
Then `NC(=O)c1oc2ccccc2c1NC(=O)CN1CCCCC1`, with inactive: > 76.9 µM; and `CCOC(=O)c1oc2ccccc2c1NC(=O)c1ccc(S(=O)(=O)N2CCCC2)cc1`, with inactive: > 76.9 µM.
Regarding `CCCCOc1ccc(C(=O)N2CCC(C)CC2)cc1`, the Potency was inactive: > 76.9 µM.
With `O=C(OCc1c(Cl)cccc1Cl)c1cnccn1`, the Potency was inactive: > 76.9 µM.
As to `COc1ccccc1Nc1nc(N)nc(CN2CCc3ccccc3C2)n1`, the Potency result was “inactive”.
Then `CCCCN(C)CCn1c(=S)[nH]c2ccc(N3CCOCC3)cc2c1=O`, with inactive: > 76.9 µM.
Regarding `O=C(NCc1ccco1)c1cccc2c1C(=O)N(C1CCCCC1)C2`, the Potency was inactive: > 76.9 µM.
Then `COCc1nnc(NC(=O)c2sc3ccccc3c2Cl)s1`, with inactive: > 76.9 µM.
Consider `O=C(Nc1ccc2c(c1)OCO2)Nc1ccc(Br)cn1`, for which the Potency is inactive: > 76.9 µM.
Then `NC(=O)CSc1nc2ccccc2n1Cc1ccccc1F`, with inactive: > 76.9 µM; and `C=CCN=C(NC#N)SCC(=O)NC(C)(C)C`, with inactive: > 76.9 µM; and `Cn1nnc(-c2ccc(OCc3ccccc3F)cc2)n1`, with inactive: > 76.9 µM.
`Cc1cc(C(=O)Nc2sc3c(c2C#N)CCC(C)C3)no1` (stereo not given): the Potency is inactive: > 76.9 µM.
Then `CC(=O)N1C(=O)N(C)C2C1N(C(C)=O)C(=O)N2C` (stereo not given), with inactive: > 76.9 µM; and `O=C(C1CCCN1S(=O)(=O)c1ccc(Cl)cc1)N1CCOCC1` (stereo not given), with inactive: > 76.9 µM; and `COc1nc(OC)nc(N2CCC(C(=O)NCc3ccco3)CC2)n1`, with inactive: > 76.9 µM.
Then `CCc1nnc(NC(=O)c2ccncc2)s1`, with inactive: > 76.9 µM; and `O=C(CC(NS(=O)(=O)c1ccc(Cl)cc1)c1ccco1)NC1CCCC1` (stereo not given), with inactive: > 76.9 µM.
The figure for `O=C(Nc1ccccc1C(F)(F)F)N1CCC(n2c(=O)[nH]c3ccccc32)CC1` is inactive: > 76.9 µM.
Regarding `COc1cccc2sc(N(C)c3ccccc3)nc12`, the Potency is inactive: > 76.9 µM.
The figure for `O=C(Nc1cccc(Cl)c1)N(Cc1nc2ccccc2c(=O)[nH]1)C1CCCC1` is inactive: > 76.9 µM; for `COc1ccc(S(=O)(=O)NC(C)C(=O)Nc2cccc(C(C)=O)c2)cc1` (stereo not given) it is inactive: > 76.9 µM.
Then `CC(=O)c1cccc(NC(=O)c2cc(-n3cnnc3)ccc2Cl)c1`, with inactive: > 76.9 µM.
The figure for `CCNS(=O)(=O)c1c(C)cc(N2CCCC2=O)cc1C` is inactive: > 76.9 µM.
Regarding `Cc1cc2cc(CN(C(=O)C3CC3)C3CCCC3)c3nnnn3c2cc1C`, the Potency was inactive: > 76.9 µM.
The figure for `Cc1cc(SCC(=O)NC(=O)NCc2ccco2)nc2c(C)cccc12` is inactive: > 76.9 µM; for `c1ccc(-c2ccc(OCCOCCn3cncn3)cc2)cc1` it is inactive: > 76.9 µM.
As to `COc1ccc(-c2nn3c(-c4ccccc4)nnc3s2)cc1`, the Potency was inactive: > 76.9 µM.
On to `Cc1noc(C)c1C(=O)OCC(=O)NCCC1=CCCCC1`, for which the Potency was inactive: > 76.9 µM.
Then `O=C1c2ccccc2CN1CCNS(=O)(=O)c1ccc(Cl)cc1`, with inactive: > 76.9 µM; and `COC(=O)c1cc(OC)c(OC)cc1NC(=O)c1oc2ccccc2c1C`, with inactive: > 76.9 µM.
Then `COc1ccc(NC(C)=O)cc1NC(=O)CSc1nnc(-c2ccncc2)n1C`, with inactive: > 76.9 µM; and `CCCC(=O)N1CCN(c2ccc(NC(=O)c3cc4ccccc4o3)cc2Cl)CC1`, with active: 4.22 µM; and `c1ccc2c(c1)CCN(c1nc3cc4c(cc3s1)OCCO4)C2`, with inactive: > 76.9 µM.
Then `CCOc1ccccc1NC(=O)Nc1cc(OC)ccc1OC`, with inactive: > 76.9 µM.
`COc1ccc(S(=O)(=O)N(CC(N)=O)C2CCCCC2)cc1Cl`: the Potency was inactive: > 76.9 µM.
Then `COC(=O)n1ccc(C(=O)Nc2ccccc2F)n1`, with inactive: > 76.9 µM; and `O=C(CSc1ncc(-c2ccc(F)cc2)[nH]1)N1CCCCC1`, with inactive: > 76.9 µM.
The figure for `CCOC(=O)CC1=C(C#N)C(c2cccnc2)C(C(=O)OCC)=C(N)O1` (stereo not given) is inactive: > 76.9 µM.
Turning to `O=C(NCc1ccc(F)cc1)C1CC(=O)N(CCc2ccccc2)C1` (stereo not given), the Potency was inactive: > 76.9 µM.
The figure for `C/C(=C\c1ccco1)C1Nc2cccc3cccc(c23)N1` is inactive: > 76.9 µM; for `COc1ccc(S(=O)(=O)N(C)CC(=O)N2CCN(C)CC2)cc1C` it is inactive: > 76.9 µM; for `COc1ccc(NC(=O)Nc2ccc(C)cc2OC(F)F)cc1OC` it is inactive: > 76.9 µM.
